The source gives no read counts; variants with many changes may rest on few reads.
B1: CPEB3 Ribozyme (parent)
chain: UAACAGGGGGCCACAGCAGAAGCGUUCACGUCGCAGCCCCUGUCAGAUUCUGGUGAAUCUGCGAAUUCUGCUGUAUAUCUC

Variants of: B1
Assay: self-cleavage, relative activity (ratio to wild type); higher = more cleavage; in vitro, sequencing
In short: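 Relative activity was defined as the cleaved/total read fraction for a variant divided by the same fraction for the unmutated ribozyme. CPEB3 self-cleaving ribozyme libraries were made by rounds of error-prone PCR, barcoded, and transcribed in vitro with T7 RNA polymerase for 5 hours at 37°C, and cleavage ran through transcription plus a 15 min DNase I step before EDTA. Illumina sequencing of template-switched reverse transcripts gave the reads, and DNA sequencing mapped the barcodes. Averages come from three batches, using variants with at least 5 reads.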

Variant	self-cleavage
A3U U31C G52U A56U	0.7
A3U A56C U67C U69A U80A	0.21
A3U C23U A65G A75U U80A	0.59
C4U A5U U26C U31C U43C	0.26
A3U U26C A28U	0.5
C4G C23G A28U U78C	0.07
C4U U25C U41A U78C	0.31
A3U C14U U41A A45G U49C G70A	0.08
A3U U25C U66C U78C	0.09
A3U U41C U58C U66C A77U	0.32
C4G C14A A18G U41A A45G U54C	0.07
A3U U41C A45C A57U A75U	0.17
A3U U25C U41A A45C U78C	0.36
A3U G46A U69G	0.21
A3U C12U U43C A57G U69G A77U	0.32
A3U G16U G46C	0.07
A3U U43C U51C	0.88
A3U U54A A65G	0.68
C4U A21C U51A U60A U74C	0.12
A3U C40U A77G	0.66
A3U A47G U69A U72C	0.52
C4U U31A U69C U72C G73U	0.24
C4G A28C U41A	0.37
C4U G7A A35G U51C A57G	0.54

Variant	self-cleavage
A3U A35G A47G U48A U69C	0.34
A3U C27U A35U U60C U69A U74C	0.07
C4G U31C G73A U76A	1.24
A3U A45U A56G A64G U80C	0.17
C4U A21C U48C U72A U76C	0.17
A3U C12U G24A A65C A77G	0.09
C4U A15G U25C C32U A64U U80A	0.16
C4U A5G C12U C40G U74A	0.17
C4U G6C U31C A35G U54A	0.32
C4U A5G U31C	0.51
C4U C11G C38G U66C	0.05
A3U A21G U41A	0.04
C4U A21G C27A A28G U41A U72A U78A	0.06
C4A C29G U78C	0.46
A3U A47G U66C U72A	0.35
C4U A5G C11A U49C A64U U69C U74A	0
C4U A45U A65G	0.39
A3U G10A A45G U58C U60A A64G U69C	0.05
C4G A21G U48C U72G	0.23
C4U U25C C40U A56G	0.24
C4U A18G U43C	0.54
A3U U25C C40U U43C	0.16
A3U A35G U58C	1.14
A3U U26A A35G A75G	1.26

Variant	self-cleavage
A3U U49C U66C U72G U78C	0.15
A3U C11G A47G A75U	0.78
A3U U25C A47U U58A A75G	0.29
C4U C11U A20G U25C A56U U72A	0.06
A3U C12G U69A	0.19
C4U U26C A56G U66A	0.23
C4U A28G C29A U41C C71U	0.23
C4G U43C U60A U72A U76C	0.16
C4A A15G A77G	0.97
C4A A28U C34U U78C	0.15
C4A A20G U43A A56G A65C	0.13
A3U U31C U76C	1.09
A3U U54C U74C U80C C81U	1.25
A3U C12U U41G U48C U54G A57C	0.06
A3U C12U A15U U43C U54C U69C U78C	0.1
A3U C14U G33A A77G C79G	0.28
C4U A21G C23U A35U A75U	0.21
C4U G9U A15G U51C G53C	0.4
C4U U25C U67C	0.14
C4A A28G A35G	1.27
C4U C11U U26A U43C U48C	0.08
C4U A47G A57G U74A A75G	1.11
C4U A15U U26A A75G	0.81
A3U C14A A57G C71G U72A	0.55

Variant	self-cleavage
A3U U26C A57G U67C	0.17
C4A G7A U51C G53U U54C	0.07
A3U C12G U49C U66C	0.1
A3U C11G A18G A47U A57U	0.28
C4U A21G U58C	0.69
C4U C23G U25C U26C U66C U78C	0.1
C4U A21G G30A U31C A56U	0.12
C4U A45U A56G U67C	0.37
A3U A21G C40U	0.57
C4G A15U U31C	0.19
C4A U41C A45G A56G U69A C71A	0.19
C4U G10A C39U U48C C62U	0.06
C4U C37U U43A U67C U72A	0.3
C4U A18G A28G U78A	0.56
C4A A20U A65C	0.12
C4U C40U A57G	0.56
A3U A35U C37U	0.36
A3U U26A U43C G55A U66C	0.1
C4G G9U A18U A35G U43C A64G	0.03
A3U U31G U43C	0.52
A3U C37U A45C	0.45
A3U A21U A28U U54C	0.32
A3U U41A A65U U67C U78C	0.13
C4G U43C A77U	1.06

Variant	self-cleavage
C4A U25C U43A G53U	0.35
A3U C12U A15G	0.55
A3U G7A A45G A57G U58C	0.23
C4U G33C G53C A64G	0.14
A3U G8U A13G A18G A64G	0.07
A3U A47G C71A	0.17
A3U A20U U49C	0.35
A3U G6A C14A A18U U76C	0.13
A3U G24U G36U U51C G55A A56U U66C	0.24
C4U A5U U26A C71U	0.98
C4G A18U A28U U74C	0.66
C4A A18U U69C	0.53
A3U A57G U60C U67C	0.22
A3U C11A A21G	0.51
C4U A5G A13G A21U U54A A56U	0.23
A3U U25C U26C U78C	0.11
A3U C11U U41G U43C U60A	0.2
C4U A18U A21G	0.15
C4A A15U G33A C39A A47G	0.09
A3U G10A G19C U25C U69G A77G	0.12
C4U A56G U58A	0.48
C4A A35G U41C U78C	1.26
C4U A35U A56G	0.63
C4U U26C A47G U66A A75G	0.28

Variant	self-cleavage
C4G C12A A15U	0.97
A3U G6A U31C A47C	0.27
A3U A64G U72A	0.88
A3U G22U A47G U67C U69C	0.19
C4U A15G C40A U41A C44A A45G	0.11
C4U C23G U25C C32A C40A A75G	0.06
A3U A28G C50U A64G U67A C71G	0.19
C4A C11U U25C U41C U67C	0.06
A3U U60A U69A	0.41
C4G A5U G30C	0.09
C4U A5C U74C C79A	1.26
A3U A21U U26C G36C C68A G70C A77G	0.03
C4G A5G C12U U25C C37U U41C A45U	0.09
C4U U26A G30A U41A U58C U72A U76C	0.1
A3U U43C U51A U66C	0.4
A3U A21G U72G U78A	0.42
C4U A45G U49G U54C	0.23
A3U U49C U72A U80C	0.22
C4G A5U A20U U51G A57G U78C	0.12
C4U U26A A47U G55U A75G U80C	0.11
A3U U26A G33U U58A	0.14
A3U C4U C23G U51A U72C	0.15
A3U A21G A45G U51C G63A U80A	0.31
A3U U25C G30A U43A A64U	0.15

Variant	self-cleavage
A3U C11A U72A U78C	0.28
A3U C23U A57G U58C	0.12
A3U G46A G63A A65G	0.14
A3U C23G U31A A56G C59U A75G	0.07
C4G C11U U49A A77U	0.36
A3U C11U U51G A64G	0.58
C4G A18C A35C U67C	0.12
A3U A28U U41C U78C	0.88
C4U A45C A56G A64G	0.14
C4A U48C U78C	0.7
C4U G24A A47C	0.25
C4U A20G A35G A45G U69A	0.63
C4U A20U U26A A28U U67C	0.15
A3U U41G A64G U66C A77G	0.13
A3U A57G A65G	0.19
C4A U25A G52A	0.54
A3U U25C U54C U60C U66A U69A	0.4
C4A A35G C40A U54C A65U	0.22
C4A A21G G22A G63A U67C	0.07
A3U U43C G63A U76C	0.6
A3U A28G U48C G73A U74C	0.68
A3U C34A A45G	0.47
C4U A5C A15U A18G G33A A57G A64G	0.07
